These are yes or no findings as the source states them, for the method shown. In cells and extracts the contact can be indirect. Some binding calls cover weakened binding; strength is not graded here. Sequences can lack the tags named with a protein. One block for each binder: values may come before it.
Legend:
[1] = molecular target: FLAG-tagged mouse LRP5 (mouse) (UniProt Q91VN0); experiment: co-IP; co-immunoprecipitation of V5-mSELENOP constructs with FLAG-mLRP5 (Supplemental Figure 11)
[2] = molecular target: FLAG-tagged mouse LRP6 (mouse) (UniProt O88572); experiment: proximity ligation; 293T cells transfected with FLAG-mLRP6 and V5-mSELENOP overexpression constructs
[3] = molecular target: FLAG-tagged mouse LRP6 (mouse) (UniProt O88572); experiment: co-IP; FLAG IP (ANTI-FLAG M2 Affinity Gel, 2 mg total protein, elution with FLAG peptide) from 293T cells cotransfected with FLAG-mLRP6 and mSELENOP constructs, blot for LRP6 and SELENOP or V5
[4] = molecular target: FLAG-tagged endogenous LRP6 (293T-FLAG-LRP6 cells) (human (endogenous in 293T)) (UniProt O75581); experiment: condition: only cells treated with 1 mg/mL heparin for 48 hours; co-IP; FLAG IP from 293T-FLAG-LRP6 cells treated with 1 mg/mL heparin for 48 hours before the IP, blot for FLAG and SELENOP
[5] = molecular target: FLAG-tagged endogenous LRP6 (293T-FLAG-LRP6 cells) (human (endogenous in 293T)) (UniProt O75581); experiment: co-IP; FLAG IP (ANTI-FLAG M2 Affinity Gel, elution with FLAG peptide) from 293T-FLAG-LRP6 cell lysates, blot for FLAG and SELENOP; parental 293T as control; also after 50 mM sodium chlorate for 48 hours (co-IP markedly enhanced)

By UniProt entry, the sequences of proteins in these tests, tags left out. Residues count along the entry.
UniProt Q91VN0, residues 31-1614: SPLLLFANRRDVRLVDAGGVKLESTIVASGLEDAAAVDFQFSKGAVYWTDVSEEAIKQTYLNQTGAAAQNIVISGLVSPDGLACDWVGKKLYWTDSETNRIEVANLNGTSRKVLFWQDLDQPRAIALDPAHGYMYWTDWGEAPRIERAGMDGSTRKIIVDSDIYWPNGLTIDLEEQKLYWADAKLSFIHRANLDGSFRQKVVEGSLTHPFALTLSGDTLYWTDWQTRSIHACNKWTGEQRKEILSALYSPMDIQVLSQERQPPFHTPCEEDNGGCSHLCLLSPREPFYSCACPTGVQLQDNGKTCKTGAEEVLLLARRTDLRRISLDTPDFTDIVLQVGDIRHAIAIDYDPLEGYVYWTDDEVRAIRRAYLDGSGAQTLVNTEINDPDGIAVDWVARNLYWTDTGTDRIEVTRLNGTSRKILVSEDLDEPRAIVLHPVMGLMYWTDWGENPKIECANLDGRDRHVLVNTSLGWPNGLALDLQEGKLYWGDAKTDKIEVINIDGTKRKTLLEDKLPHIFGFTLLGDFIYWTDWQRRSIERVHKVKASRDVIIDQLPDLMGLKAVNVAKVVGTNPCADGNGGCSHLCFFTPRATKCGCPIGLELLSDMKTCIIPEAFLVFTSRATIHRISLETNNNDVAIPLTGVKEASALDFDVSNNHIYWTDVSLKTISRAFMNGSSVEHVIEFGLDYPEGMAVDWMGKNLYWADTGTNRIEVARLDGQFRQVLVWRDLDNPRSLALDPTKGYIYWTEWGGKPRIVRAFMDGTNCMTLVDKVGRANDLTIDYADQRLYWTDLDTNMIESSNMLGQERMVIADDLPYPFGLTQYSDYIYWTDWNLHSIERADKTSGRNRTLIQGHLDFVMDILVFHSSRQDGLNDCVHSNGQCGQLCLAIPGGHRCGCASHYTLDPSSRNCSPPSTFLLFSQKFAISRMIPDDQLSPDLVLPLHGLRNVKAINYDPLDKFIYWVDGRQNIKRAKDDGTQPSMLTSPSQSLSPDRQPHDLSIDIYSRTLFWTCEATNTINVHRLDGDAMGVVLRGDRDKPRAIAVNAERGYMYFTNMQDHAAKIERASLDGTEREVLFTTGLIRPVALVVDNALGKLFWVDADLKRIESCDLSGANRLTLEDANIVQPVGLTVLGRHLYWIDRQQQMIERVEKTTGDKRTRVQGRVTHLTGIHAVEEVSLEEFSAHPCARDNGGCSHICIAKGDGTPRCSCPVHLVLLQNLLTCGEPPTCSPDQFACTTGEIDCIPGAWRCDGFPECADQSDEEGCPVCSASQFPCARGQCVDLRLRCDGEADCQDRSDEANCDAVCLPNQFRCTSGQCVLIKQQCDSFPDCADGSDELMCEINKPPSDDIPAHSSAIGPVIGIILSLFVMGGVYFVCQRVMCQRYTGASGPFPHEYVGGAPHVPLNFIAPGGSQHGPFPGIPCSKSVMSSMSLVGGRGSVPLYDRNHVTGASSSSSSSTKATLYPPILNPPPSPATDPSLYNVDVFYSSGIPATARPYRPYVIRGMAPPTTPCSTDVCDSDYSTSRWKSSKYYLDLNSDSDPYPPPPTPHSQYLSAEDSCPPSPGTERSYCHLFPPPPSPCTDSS
UniProt O88572, residues 20-1613: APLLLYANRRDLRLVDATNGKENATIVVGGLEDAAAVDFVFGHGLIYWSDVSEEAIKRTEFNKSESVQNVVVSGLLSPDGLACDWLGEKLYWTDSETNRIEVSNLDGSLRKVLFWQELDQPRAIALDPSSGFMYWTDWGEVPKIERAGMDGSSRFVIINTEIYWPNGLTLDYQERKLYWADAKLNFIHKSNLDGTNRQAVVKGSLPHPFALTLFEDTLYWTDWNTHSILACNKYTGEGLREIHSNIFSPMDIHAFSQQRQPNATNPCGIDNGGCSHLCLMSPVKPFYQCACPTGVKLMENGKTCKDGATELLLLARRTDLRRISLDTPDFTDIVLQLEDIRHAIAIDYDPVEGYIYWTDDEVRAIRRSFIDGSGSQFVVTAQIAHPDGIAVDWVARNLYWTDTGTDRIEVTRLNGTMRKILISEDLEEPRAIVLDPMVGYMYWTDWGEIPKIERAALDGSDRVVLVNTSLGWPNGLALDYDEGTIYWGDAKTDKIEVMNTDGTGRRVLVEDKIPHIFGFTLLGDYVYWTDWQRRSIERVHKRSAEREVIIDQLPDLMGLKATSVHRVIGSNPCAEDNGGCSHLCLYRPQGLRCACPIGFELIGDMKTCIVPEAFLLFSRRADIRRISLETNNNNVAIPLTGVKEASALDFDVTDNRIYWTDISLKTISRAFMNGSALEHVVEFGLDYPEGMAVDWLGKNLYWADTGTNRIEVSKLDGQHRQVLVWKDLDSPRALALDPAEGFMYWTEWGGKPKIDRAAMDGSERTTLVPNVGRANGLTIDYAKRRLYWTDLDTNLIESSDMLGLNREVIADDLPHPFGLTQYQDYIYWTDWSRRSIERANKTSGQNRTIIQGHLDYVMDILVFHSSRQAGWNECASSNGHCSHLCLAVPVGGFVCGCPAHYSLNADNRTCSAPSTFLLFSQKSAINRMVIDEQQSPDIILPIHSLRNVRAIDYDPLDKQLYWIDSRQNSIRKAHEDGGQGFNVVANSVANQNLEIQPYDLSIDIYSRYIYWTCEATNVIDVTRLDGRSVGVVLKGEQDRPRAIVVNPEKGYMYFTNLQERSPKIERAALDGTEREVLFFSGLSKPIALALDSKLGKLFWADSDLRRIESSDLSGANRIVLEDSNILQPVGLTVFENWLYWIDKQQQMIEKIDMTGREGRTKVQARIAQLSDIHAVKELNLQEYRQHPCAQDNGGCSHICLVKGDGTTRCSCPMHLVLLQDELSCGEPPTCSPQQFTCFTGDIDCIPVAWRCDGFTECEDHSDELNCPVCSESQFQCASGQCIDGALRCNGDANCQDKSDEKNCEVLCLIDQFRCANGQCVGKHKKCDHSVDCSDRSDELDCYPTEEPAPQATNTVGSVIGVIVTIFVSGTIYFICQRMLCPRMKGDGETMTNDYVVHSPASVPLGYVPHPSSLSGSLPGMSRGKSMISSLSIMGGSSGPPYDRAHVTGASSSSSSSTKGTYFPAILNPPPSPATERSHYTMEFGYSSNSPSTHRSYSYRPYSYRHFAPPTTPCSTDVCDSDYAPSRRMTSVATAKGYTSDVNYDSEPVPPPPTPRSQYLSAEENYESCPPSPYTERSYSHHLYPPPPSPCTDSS
UniProt O75581, residues 20-1613: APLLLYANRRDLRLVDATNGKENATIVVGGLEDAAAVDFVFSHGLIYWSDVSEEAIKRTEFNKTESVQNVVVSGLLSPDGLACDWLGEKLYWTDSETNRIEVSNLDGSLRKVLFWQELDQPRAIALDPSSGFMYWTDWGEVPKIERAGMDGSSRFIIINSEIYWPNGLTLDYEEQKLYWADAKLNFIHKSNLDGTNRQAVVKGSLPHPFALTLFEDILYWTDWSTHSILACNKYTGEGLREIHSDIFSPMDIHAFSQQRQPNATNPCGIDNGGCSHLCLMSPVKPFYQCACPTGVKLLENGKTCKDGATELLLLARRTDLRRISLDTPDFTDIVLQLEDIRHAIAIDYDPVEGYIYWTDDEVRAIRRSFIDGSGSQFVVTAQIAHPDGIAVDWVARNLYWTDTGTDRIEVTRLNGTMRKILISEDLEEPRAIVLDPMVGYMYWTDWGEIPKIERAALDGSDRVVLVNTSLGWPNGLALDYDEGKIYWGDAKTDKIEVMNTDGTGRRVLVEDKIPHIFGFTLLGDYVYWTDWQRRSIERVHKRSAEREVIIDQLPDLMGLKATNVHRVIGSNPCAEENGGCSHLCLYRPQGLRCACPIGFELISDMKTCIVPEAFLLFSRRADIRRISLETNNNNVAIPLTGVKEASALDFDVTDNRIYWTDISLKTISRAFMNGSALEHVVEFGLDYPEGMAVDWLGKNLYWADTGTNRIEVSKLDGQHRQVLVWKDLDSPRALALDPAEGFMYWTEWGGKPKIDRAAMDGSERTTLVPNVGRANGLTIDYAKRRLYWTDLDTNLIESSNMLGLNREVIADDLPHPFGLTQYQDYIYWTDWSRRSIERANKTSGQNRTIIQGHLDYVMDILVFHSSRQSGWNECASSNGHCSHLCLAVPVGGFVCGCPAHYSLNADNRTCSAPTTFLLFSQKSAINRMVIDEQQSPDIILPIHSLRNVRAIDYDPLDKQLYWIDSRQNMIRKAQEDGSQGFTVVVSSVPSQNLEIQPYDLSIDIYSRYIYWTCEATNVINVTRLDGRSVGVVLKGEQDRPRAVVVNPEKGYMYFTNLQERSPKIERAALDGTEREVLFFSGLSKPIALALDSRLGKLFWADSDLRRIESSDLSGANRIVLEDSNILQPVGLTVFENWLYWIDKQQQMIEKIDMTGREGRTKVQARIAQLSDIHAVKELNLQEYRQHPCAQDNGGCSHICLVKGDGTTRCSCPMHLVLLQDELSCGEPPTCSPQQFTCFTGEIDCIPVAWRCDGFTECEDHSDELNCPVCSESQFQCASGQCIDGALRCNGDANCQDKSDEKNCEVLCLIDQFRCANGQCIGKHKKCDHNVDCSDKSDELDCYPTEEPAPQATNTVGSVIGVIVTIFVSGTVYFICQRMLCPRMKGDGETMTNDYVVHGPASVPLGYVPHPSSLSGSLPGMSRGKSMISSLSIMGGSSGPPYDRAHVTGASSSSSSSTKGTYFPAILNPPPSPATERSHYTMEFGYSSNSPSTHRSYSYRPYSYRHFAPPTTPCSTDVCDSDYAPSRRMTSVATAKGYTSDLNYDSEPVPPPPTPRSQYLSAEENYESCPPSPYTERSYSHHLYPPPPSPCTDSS

binding [1]: binds | binding [2]: binds | binding [3]: binds
B1: V5-tagged mouse SELENOP, full-length (protein, UniProt P70274 20-380)
chain: ESQGQSSACYKAPEWYIGDQNPMLNSEGKVTVVALLQASUYLCLLQASRLEDLRIKLESQGYFNISYIVVNHQGSPSQLKHSHLKKQVSEHIAVYRQEEDGIDVWTLLNGNKDDFLIYDRCGRLVYHLGLPYSFLTFPYVEEAIKIAYCEERCGNCNLTSLEDEDFCKTVTSATANKTAEPSEAHSHHKHHNKHGQEHLGSSKPSENQQPGPSETTLPPSGLHHHHRHRGQHRQGHLESUDTTASEGLHLSLAQRKLURRGCINQLLCKLSKESEAAPSSCCCHCRHLIFEKSGSAIAUQCAENLPSLCSUQGLFAEEKVTESCQCRSPPAAUQNQPMNPMEANPNUSUDNQTRKUKUHSN
modifications: selenocysteines (U); third at U258, fourth at U299

binding [4]: no binding | binding [5]: binds
B2: selenoprotein P (SELENOP) in 293T-FLAG-LRP6 cells (protein, UniProt P49908 20-381)
chain: ESQDQSSLCKQPPAWSIRDQDPMLNSNGSVTVVALLQASUYLCILQASKLEDLRVKLKKEGYSNISYIVVNHQGISSRLKYTHLKNKVSEHIPVYQQEENQTDVWTLLNGSKDDFLIYDRCGRLVYHLGLPFSFLTFPYVEEAIKIAYCEKKCGNCSLTTLKDEDFCKRVSLATVDKTVETPSPHYHHEHHHNHGHQHLGSSELSENQQPGAPNAPTHPAPPGLHHHHKHKGQHRQGHPENRDMPASEDLQDLQKKLCRKRCINQLLCKLPTDSELAPRSUCCHCRHLIFEKTGSAITUQCKENLPSLCSUQGLRAEENITESCQURLPPAAUQISQQLIPTEASASURUKNQAKKUEUPSN
